# Reference: article PMC4336329 (PLoS ONE, 2015)
# About 14,000 (4.5%) of roughly 310,000 compounds showed an effect of 50% or more. Effects have a minus sign here. Some of the results follow.
# Biological target: human ether-à-go-go-related gene (hERG) potassium channel (human, UniProt Q12809)
# Test: primary screen, population patch clamp on CHO cells stably expressing hERG
# 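Note: peak tail current of the secondary pulse compared with the same well before compound.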
# Chain of human ether-à-go-go-related gene (hERG) potassium channel (Q12809 whole entry, looked up): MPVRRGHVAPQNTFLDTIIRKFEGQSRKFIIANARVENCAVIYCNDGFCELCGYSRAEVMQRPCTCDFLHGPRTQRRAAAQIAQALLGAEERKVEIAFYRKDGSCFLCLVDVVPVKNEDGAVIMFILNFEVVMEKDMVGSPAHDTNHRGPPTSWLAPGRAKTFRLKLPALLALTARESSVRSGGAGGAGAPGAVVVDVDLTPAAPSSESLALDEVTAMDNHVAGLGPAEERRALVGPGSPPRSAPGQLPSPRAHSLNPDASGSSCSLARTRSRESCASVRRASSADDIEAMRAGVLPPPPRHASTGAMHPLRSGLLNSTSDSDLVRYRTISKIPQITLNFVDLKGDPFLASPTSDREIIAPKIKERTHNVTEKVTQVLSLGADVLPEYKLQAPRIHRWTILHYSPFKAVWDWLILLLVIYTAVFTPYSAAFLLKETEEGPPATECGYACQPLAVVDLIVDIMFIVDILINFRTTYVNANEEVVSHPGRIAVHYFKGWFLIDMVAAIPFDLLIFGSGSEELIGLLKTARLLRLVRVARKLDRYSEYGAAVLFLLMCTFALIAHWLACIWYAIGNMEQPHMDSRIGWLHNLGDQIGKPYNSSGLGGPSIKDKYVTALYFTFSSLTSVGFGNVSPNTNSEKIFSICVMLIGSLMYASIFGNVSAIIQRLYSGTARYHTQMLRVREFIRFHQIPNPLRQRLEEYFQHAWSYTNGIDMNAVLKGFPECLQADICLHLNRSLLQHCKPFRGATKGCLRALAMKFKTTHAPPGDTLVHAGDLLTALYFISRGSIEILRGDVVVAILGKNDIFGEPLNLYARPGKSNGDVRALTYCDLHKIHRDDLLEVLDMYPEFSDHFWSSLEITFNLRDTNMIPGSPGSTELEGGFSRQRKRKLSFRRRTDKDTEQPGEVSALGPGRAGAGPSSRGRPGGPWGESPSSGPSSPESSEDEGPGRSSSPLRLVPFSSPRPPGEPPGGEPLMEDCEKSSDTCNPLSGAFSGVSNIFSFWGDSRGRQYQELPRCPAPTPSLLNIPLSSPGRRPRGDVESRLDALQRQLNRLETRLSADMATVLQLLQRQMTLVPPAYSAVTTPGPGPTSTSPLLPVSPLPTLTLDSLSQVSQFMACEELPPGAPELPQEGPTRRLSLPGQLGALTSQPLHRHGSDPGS
row,SMILES,"hERG current change (%, negative = inhibition) at 10uM [%]"
1,COc1ccc(-n2nc(C(=O)NCC(=O)O)c3ccccc3c2=O)cc1,17.7
2,COc1ccc(OC)c(NC(=O)CSc2sc3c(O)cc(=O)[nH]c3c2C#N)c1,-19.4
3,Cc1cccc(CN2CCN(CC(=O)N3CCCC3)C2=O)c1,-5.53
4,C=C(C)CSc1nnc(-c2ccccc2)n1N,-1.72
5,CC1CCN(S(=O)(=O)c2ccc(C(=O)N(C)C3CCS(=O)(=O)C3)cc2)CC1 (stereo not shown),4.83
6,CN(C)c1nc(N)nc(-c2ccco2)n1,9.78
7,COCCN(Cc1cc2ccc(C)cc2[nH]c1=O)S(=O)(=O)c1ccccc1,-16.3
8,COc1ccc(-c2cc(C(=O)N3CCN(c4ccccc4)CC3)no2)cc1,12.1
9,COc1cc(OC)c(-c2noc(C(=O)OC(C)(C)C)c2C(=O)OC(C)(C)C)c(OC)c1,0.93
10,CCc1cc2c(=O)c(-c3nc4ccccc4[nH]3)coc2cc1OC(=O)N1CCOCC1,-10.7
11,CCOc1ccc(C(=O)NCC(=O)OCC(=O)N2CCCCC2)cc1,5.79
12,CC1Oc2ccccc2N(CC(=O)N2CCCc3ccccc32)C1=O (stereo not shown),-16.3
13,O=C(N/N=C/c1cccc(O)c1)c1ccc(NC(=O)C2CCCCC2)cc1,33
14,COc1ccc2nc(NC(=O)CSC(C)C(=O)Nc3cc(C)on3)sc2c1 (stereo not shown),-11.5
15,COc1cccc(C2=NOC(C(=O)NC3CCCCC3)C2)c1 (stereo not shown),-11.6
16,COc1cccc(C(=O)n2c(SC)nc3cc4c(cc32)OCCO4)c1,-17.2
17,O=C(NNC1=NS(=O)(=O)c2ccccc21)c1ccc([N+](=O)[O-])cc1,7.45
18,CCOC(=O)c1sc2cc([N+](=O)[O-])cc(SCCO)c2c1N,8.39
19,CN(C)C(=O)CCC(=O)N1CCCC(N2CCN(c3cccc(C(F)(F)F)c3)CC2)C1 (stereo not shown),-12.3
20,N#Cc1cccc(NC(=O)CSc2ccc3c4c(cccc24)C(=O)c2ccccc2-3)c1,23.4
21,O=C(CNS(=O)(=O)c1ccc([N+](=O)[O-])cc1)N/N=C/c1ccc(O)cc1O,23.2
22,COc1cccc(C(=O)CN2CCN(S(=O)(=O)c3cccc([N+](=O)[O-])c3)CC2)c1,-9.29

row,SMILES,"hERG current change (%, negative = inhibition) at 10uM [%]"
1,Cc1ccc2nc(SCC(=O)Nc3cccc(S(N)(=O)=O)c3)[nH]c2c1,13.5
2,CCN(CC)c1nc(=S)nc(NC(C)(C)C)[nH]1,-21.3
3,O=C(NCc1cccnc1)c1cccn1-c1ncc(C(F)(F)F)cc1Cl,14.1
4,Oc1cncc(-c2cccnc2)c1,6.63
5,COc1ccc(C2=CC3=C(Br)C(=O)C(C)(OC(=O)c4cccs4)C(=O)C3=CO2)cc1 (stereo not shown),8.96
6,O=C(NCc1ccc(F)cc1)C(c1ccc(Cl)cc1)N(C(=O)c1csnn1)C1CC1 (stereo not shown),-0.0702
7,CCOc1ccc2nc(NC(=O)C34CC5CC(CC(NC(C)=O)(C5)C3)C4)sc2c1,-13.5
8,CCOc1cc2c(cc1OCC)-n1cccc1C(c1ccccc1F)NC2.Cl (stereo not shown),-4.4
9,CC(=O)Nc1cc(NC(C)=O)c2nc(N)sc2c1.Cl,12.3
10,CN(C)CCN(Cc1ccccc1)C(=O)C1CCN(c2ncnc3c2nc2n3CCCCC2)CC1,-15.1
11,COCCn1c(SCCOc2ccccc2)nc2ccccc2c1=O,-6.1
12,COC(=O)c1oc2ccc(Br)cc2c1NC(=O)CN1CCN(C)CC1,-62.3
13,CC(CNC(=O)Cn1ccc2cc(S(=O)(=O)N3CCCC3)ccc21)c1ccccc1 (stereo not shown),-9.17
14,CCOc1ccc(NC(=O)[C@@H](NC(=O)c2ccccc2)[C@@H](C)CC)cc1,2.26
15,O=C(NCc1cccnc1)c1cccc2c1C(=O)N(Cc1cccnc1)C2,-11
16,CCCCOc1cc(=O)[nH]c(=O)[nH]1,17.3
17,O=C(NC(=S)NCCO)c1cn(-c2ccccc2)nc1-c1ccccc1,22.9
18,Cc1ccc(S(=O)(=O)NN2C(=O)c3ccccc3NC2C)cc1 (stereo not shown),-7.72
19,O=C(O)CNS(=O)(=O)c1ccc(Br)s1,-3.74
20,CCOC(=O)C(NC(=O)C1CCCN1C(=O)OCc1ccccc1)C(=O)OCC (stereo not shown),-0.938
21,COc1ccc(N2C(=O)C(Cl)=C(N3CCCC(C)C3)C2=O)cc1 (stereo not shown),4.81
22,COc1ccc(-c2noc(N3CCC(C(=O)NCc4ccccc4Cl)CC3)n2)cc1,-11.9

row,SMILES,"hERG current change (%, negative = inhibition) at 10uM [%]"
1,Cc1cccc(Nc2ccc([N+](=O)[O-])cc2C(=O)O)c1,3.44
2,CCCCN(CCCC)C(=O)C1CC=CCC1C(=O)O (stereo not shown),6.74
3,O=C(O)c1ccc2c(c1)C(=O)N(c1ccccc1-c1ccccc1)C2=O,5.93
4,CC(=O)C1=C(O)C(=O)N(c2ccc(Br)cc2)C1c1ccc(Cl)cc1 (stereo not shown),16.8
5,CCc1ccc(S(=O)(=O)N2c3ccc(C)cc3C3CN(C)CCC32)cc1 (stereo not shown),-60.4
6,COC(C[C@H]1O[C@H]1C(=O)[C@@H](C)OCc1ccccc1)OC,18.8
7,CCc1c(O)nc(SCC(=O)N2CCCCC2)n(-c2ccccc2C)c1=O,1.44
8,O=C(CSc1ncnc2ccccc12)c1ccco1,14.5
9,CN1CCN(c2oc(-c3ccccc3F)nc2S(=O)(=O)c2ccc(Cl)cc2)CC1,-57.6
10,CCOc1ccc(-n2c(-c3ccccc3)c[n+]3c2CCCCC3)cc1.[Br-],-67
11,O=C(CN(Cc1ccccc1Cl)C(=O)c1csnn1)NCc1ccc2c(c1)OCO2,-51.4
12,CSc1ccc(-c2cc(=O)c3ccccc3o2)cc1,-0.926
13,Nc1ccc2c(c1)C(=O)N(CCCCCC(=O)O)C2,5.05
14,COc1ccc(Cn2c(=O)[nH]c3cc(C(=O)N4CCN(c5ccccc5)CC4)ccc3c2=O)cc1,9.23
15,O=C(CSc1ccccc1C(=O)O)NCC1CCCCC1,-13
16,COc1ccc(-n2nc(C)c3onc(C)c3c2=O)cc1,10
17,Cc1ccccc1C(=O)NC(C)C(c1cccs1)N1CCOCC1 (stereo not shown),-18.3
18,CC[C@@]1(c2ccccc2OC)C(=O)N(C(=O)OC)N1C(=O)OC,17.5
19,CCCNC(=O)NC(=O)COC(=O)c1ccc(S(=O)(=O)N(C)c2ccccc2OC)cc1,10.5
20,Cc1nc(C(C)(C)O)n(-c2ccccc2)n1,4.91
21,Cn1nnc(NC(=O)CSc2nnnn2-c2ccc(F)cc2)n1,-9.19
22,COc1ccc(-c2[nH]ncc2CN(C)C(C)c2ccncn2)c(F)c1 (stereo not shown),-0.232

row,SMILES,"hERG current change (%, negative = inhibition) at 10uM [%]"
1,CNC(=O)c1ccc(-n2nc(C)cc2-c2ccccc2)cc1,6.86
2,CC(C)(C)c1cc(OC(=O)Cc2ccccc2)ccc1O,17.1
3,CCCCCCC1CCC(C(=O)Nn2c(C)nc3ccccc3c2=O)CC1 (stereo not shown),25.7
4,CC(=O)O.CN1CCCC(CN2c3ccccc3Sc3ccccc32)C1 (stereo not shown),-28.4
5,Cl.NCc1ccccc1,-5.79
6,Cc1c(N(C(=O)Nc2ccccc2)C2=NCC(C)S2)c(=O)n(-c2ccccc2)n1C (stereo not shown),-28.8
7,Cc1noc(C)c1COC(=O)c1cc2c3ccccc3n(C)c2s1,7.19
8,COc1cc(OC)cc(C(=O)N[C@H](C(=O)Nc2nc3ccc(S(C)(=O)=O)cc3s2)C(C)C)c1,-8.64
9,O=C(c1ccc2nc3ccc(Cl)cc3c(=O)n2c1)N1CCC2(CC1)OCCO2,-40.3
10,N#C/C(=C/c1ccc(-c2ccc(C(=O)O)c(Cl)c2)o1)C(=O)NCC1CCCO1 (stereo not shown),12.3
11,O=S(=O)(c1cccc2nonc12)N1CCCCCC1,5.98
12,Cc1ccc(S(=O)(=O)N2CCC(=O)N(C(COCc3ccc(C(F)(F)F)cc3)C(C)C)CC2)cc1 (stereo not shown),-36.7
13,NS(=O)(=O)c1cccc(NC(=O)COC(=O)CN2C(=O)C3CC=CCC3C2=O)c1 (stereo not shown),23.4
14,C=CCOC(=O)C(=O)/C=C/c1c(C)n(C)n(-c2ccccc2)c1=O,27.2
15,CCn1c(=O)cc(N2CCC3(CC2)OCCO3)[nH]c1=O,10.1
16,COc1cc(Cn2c(-c3ccc(O)c(OC)c3)nc3ccccc32)ccc1O,-49.3
17,CCOC(=O)c1cnn(-c2ccccc2)c1-n1cccc1C(=O)C(=O)Nc1ccccc1C(F)(F)F,-1.11
18,O=C1CN(c2ccc(Cl)cc2)C(=O)CN1NC(=S)Nc1ccc(Cl)cc1,-3.95
19,COC(=O)Oc1ccc(/C=N/NC(=O)CSCc2ccccc2Br)cc1OC,-22.3
20,CC(Sc1ccc(Br)cc1)C(N)=O (stereo not shown),10.9
21,Cc1c(C(=O)O)sc(=S)n1CCOc1ccccc1,13.2
22,C=CCN1C(=O)C(CC(=O)Nc2ccccc2F)S/C1=N\c1nccs1 (stereo not shown),7.51
